Measurements taken from the supplement of paper PMC8728848.
Some of the results follow.

Key:
Experiment in all cases: glycan array binding signal (z-score within array); higher = stronger binding
Conditions in all cases: glycan notation: IUPAC condensed, linker removed
Fuc(a1-2)Gal = molecular target: Fuc(a1-2)Gal
Outline: (§1)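 From the Consortium for Functional Glycomics database, 3228 arrays were curated, keeping only those whose protein sequence was available. Binding is given as a within-array Z-score averaged across arrays sharing a protein sequence and across linkers. Negative Z-scores can be read as non-binding.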

Fuc(a1-2)Gal(b1-3)GalNAc = molecular target: Fuc(a1-2)Gal(b1-3)GalNAc
Outline: as §1

[1] = molecular target: Fuc(a1-2)Gal(b1-3)GalNAc(a1-3)[Fuc(a1-2)]Gal(b1-4)Glc
Outline: as §1

[2] = molecular target: Fuc(a1-2)Gal(b1-3)GalNAc(a1-3)[Fuc(a1-2)]Gal(b1-4)GlcNAc
Outline: as §1

[3] = molecular target: Fuc(a1-2)Gal(b1-3)GalNAc(b1-3)Gal
Outline: as §1

[4] = molecular target: Fuc(a1-2)Gal(b1-3)GalNAc(b1-3)Gal(a1-4)Gal(b1-4)Glc
Outline: as §1

[5] = molecular target: Fuc(a1-2)Gal(b1-3)GalNAc(b1-4)[Neu5Ac(a2-3)]Gal(b1-4)Glc
Outline: as §1

Fuc(a1-2)Gal(b1-3)GlcNAc = molecular target: Fuc(a1-2)Gal(b1-3)GlcNAc
Outline: as §1

[6] = molecular target: Fuc(a1-2)Gal(b1-3)GlcNAc(b1-2)Man(a1-3)[Fuc(a1-2)Gal(b1-3)GlcNAc(b1-2)Man(a1-6)]Man(b1-4)GlcNAc(b1-4)GlcNAc
Outline: as §1

[7] = molecular target: Fuc(a1-2)Gal(b1-3)GlcNAc(b1-2)Man(a1-3)[Fuc(a1-2)Gal(b1-3)GlcNAc(b1-2)Man(a1-6)]Man(b1-4)GlcNAc(b1-4)[Fuc(a1-6)]GlcNAc
Outline: as §1

[8] = molecular target: Fuc(a1-2)Gal(b1-3)GlcNAc(b1-3)Gal(b1-4)Glc
Outline: as §1

[9] = molecular target: Fuc(a1-2)Gal(b1-3)GlcNAc(b1-3)GalNAc
Outline: as §1

[10] = molecular target: Fuc(a1-2)Gal(b1-3)GlcNAc(b1-3)[Fuc(a1-2)Gal(b1-3)GlcNAc(b1-6)]GalNAc
Outline: as §1

[11] = molecular target: Fuc(a1-2)Gal(b1-3)GlcNAc(b1-3)[Gal(b1-4)GlcNAc(b1-6)]Gal(b1-4)Glc
Outline: as §1

[12] = molecular target: Fuc(a1-2)Gal(b1-3)GlcNAc(b1-3)[Neu5Ac(a2-6)Gal(b1-4)GlcNAc(b1-6)]Gal(b1-4)Glc
Outline: as §1

[13] = molecular target: Fuc(a1-2)Gal(b1-3)GlcNAc6S
Outline: as §1

[14] = molecular target: Fuc(a1-2)Gal(b1-3)[Fuc(a1-4)]GlcNAc
Outline: as §1

[15] = molecular target: Fuc(a1-2)Gal(b1-3)[Fuc(a1-4)]GlcNAc(b1-2)Man(a1-3)[Fuc(a1-2)Gal(b1-3)[Fuc(a1-4)]GlcNAc(b1-2)Man(a1-3)]Man(b1-4)GlcNAc(b1-4)GlcNAc
Outline: as §1

[16] = molecular target: Fuc(a1-2)Gal(b1-3)[Fuc(a1-4)]GlcNAc(b1-2)Man(a1-3)[Fuc(a1-2)Gal(b1-3)[Fuc(a1-4)]GlcNAc(b1-2)Man(a1-6)]Man(b1-4)GlcNAc(b1-4)[Fuc(a1-6)]GlcNAc(b1-4)[Fuc(a1-6)]GlcNAc
Outline: as §1

[17] = molecular target: Fuc(a1-2)Gal(b1-3)[Fuc(a1-4)]GlcNAc(b1-3)[Fuc(a1-3)[Gal(b1-4)]GlcNAc(b1-6)]Gal(b1-4)Glc
Outline: as §1

[18] = molecular target: Fuc(a1-2)Gal(b1-3)[Fuc(a1-4)]GlcNAc(b1-3)[Gal(b1-4)GlcNAc(b1-6)]Gal(b1-4)Glc
Outline: as §1

Fuc(a1-2)Gal(b1-4)Glc = molecular target: Fuc(a1-2)Gal(b1-4)Glc
Outline: as §1

Fuc(a1-2)Gal(b1-4)Glc6S = molecular target: Fuc(a1-2)Gal(b1-4)Glc6S
Outline: as §1

Fuc(a1-2)Gal(b1-4)GlcNAc = molecular target: Fuc(a1-2)Gal(b1-4)GlcNAc
Outline: as §1

[19] = molecular target: Fuc(a1-2)Gal(b1-4)GlcNAc(b1-2)Man
Outline: as §1

[20] = molecular target: Fuc(a1-2)Gal(b1-4)GlcNAc(b1-2)Man(a1-3)[Fuc(a1-2)Gal(b1-4)GlcNAc(b1-2)Man(a1-6)]Man(b1-4)GlcNAc(b1-4)GlcNAc
Outline: as §1

[21] = molecular target: Fuc(a1-2)Gal(b1-4)GlcNAc(b1-2)Man(a1-3)[Fuc(a1-2)Gal(b1-4)GlcNAc(b1-2)Man(a1-6)]Man(b1-4)GlcNAc(b1-4)[Fuc(a1-6)]GlcNAc
Outline: as §1

[22] = molecular target: Fuc(a1-2)Gal(b1-4)GlcNAc(b1-2)[Fuc(a1-2)Gal(b1-4)GlcNAc(b1-4)]Man(a1-3)[Fuc(a1-2)Gal(b1-4)GlcNAc(b1-2)Man(a1-6)]Man(b1-4)GlcNAc(b1-4)GlcNAc
Outline: as §1

[23] = molecular target: Fuc(a1-2)Gal(b1-4)GlcNAc(b1-3)Gal(b1-4)GlcNAc
Outline: as §1

[24] = molecular target: Fuc(a1-2)Gal(b1-4)GlcNAc(b1-3)Gal(b1-4)GlcNAc(b1-2)Man(a1-3)[Fuc(a1-2)Gal(b1-4)GlcNAc(b1-3)Gal(b1-4)GlcNAc(b1-2)Man(a1-6)]Man(b1-4)GlcNAc(b1-4)GlcNAc
Outline: as §1

B1: PX9937J-pdi-523-26-523 (Parabacteroides distasonis) (protein)
chain: EPVSSISDANYWKSPDLFKAFNIGLHGLLRSQSSYNIFVLGEPRSDIYGDQPFGGEATQGVERFSYNTINAEFTGISNFANFYTTLNQINLMIRRTNETDLLGEAEKNYYLGQAYGLRAYIYFHLLRSWGDVIITTEPTLGSELDISHLDKAASPASEVMDLIKKDIDASEKAFGGDYSYKQGKCYWSKPATLMLKGEVYLWSGRQMGGGTGDYTVAKTALQDLQQNGNLKLQEKFTDVFSFNNKENSEMIFALHSGKEDDFMMWRDYNWRNNMVPQREYMAGYCDETGTPFLEIPGYNLQGLMRYQVKKDHYLKSFREGDTRLKGTLKAVYKKHEDGTLEYIAPIQYKFQGTTLEGSNERSWYDDYPIYRYADALLLLAEAKALLGEDPSTEINAVRERAYGSEYFNAHKNEVAYPNDKGSFYNDNPFEAGDENVMEAILKERLREFFFEGKRWYDLRRFGKDYVLKYTTAQESRLLWPINEGALTNNPALKQTPGY
For B1, the “glycan array binding signal (z-score)” value (Fuc(a1-2)Gal) was 0.023, the “glycan array binding signal (z-score)” value (Fuc(a1-2)Gal(b1-3)GalNAc) was -0.27 and the “glycan array binding signal (z-score)” value [1] was -0.166. The “glycan array binding signal (z-score)” value [2] was -0.617, the “glycan array binding signal (z-score)” value [3] was 0.075 and the “glycan array binding signal (z-score)” value [4] was -0.291. For the same binder, the “glycan array binding signal (z-score)” value [5] was -0.095, the “glycan array binding signal (z-score)” value (Fuc(a1-2)Gal(b1-3)GlcNAc) was -0.435 and the “glycan array binding signal (z-score)” value [6] was 0.513. For the same binder, the “glycan array binding signal (z-score)” value [7] was -0.51, the “glycan array binding signal (z-score)” value [8] was -0.373 and the “glycan array binding signal (z-score)” value [9] was -0.419. For the same binder, the “glycan array binding signal (z-score)” value [10] was -0.127, the “glycan array binding signal (z-score)” value [11] was -0.605 and the “glycan array binding signal (z-score)” value [12] was -0.634. The “glycan array binding signal (z-score)” value [13] was -0.687, the “glycan array binding signal (z-score)” value [14] was -0.325 and the “glycan array binding signal (z-score)” value [15] was 0.203. The “glycan array binding signal (z-score)” value [16] was -0.375, the “glycan array binding signal (z-score)” value [17] was 0.154 and the “glycan array binding signal (z-score)” value [18] was -0.518. For the same binder, the “glycan array binding signal (z-score)” value (Fuc(a1-2)Gal(b1-4)Glc) was -0.379, the “glycan array binding signal (z-score)” value (Fuc(a1-2)Gal(b1-4)Glc6S) was -0.759 and the “glycan array binding signal (z-score)” value (Fuc(a1-2)Gal(b1-4)GlcNAc) was -0.351. The “glycan array binding signal (z-score)” value [19] was -0.1, the “glycan array binding signal (z-score)” value [20] was -0.132 and the “glycan array binding signal (z-score)” value [21] was 0.953. For the same binder, the “glycan array binding signal (z-score)” value [22] was -0.052, the “glycan array binding signal (z-score)” value [23] was -0.477 and the “glycan array binding signal (z-score)” value [24] was 0.281.
